Measured values published in PubChem BioAssay AID1347428 (National Center for Advancing Translational Sciences (NCATS), 2020).
About 290 (0.32%) of roughly 91,000 compounds were called active. The inconclusive results got no clear call from the source; some entries with a clear call stand among them for comparison. Calls follow the shape of the dose curve; as a rule, active = well fitted inhibition curve with a large enough effect; inconclusive = small, poorly fitted or top-dose-only effect; inactive = no such curve, though single readings can be large or run the other way. Where the call is inconclusive, the potency comes from a doubtful curve fit.

These compounds were tested against Single-stranded DNA cytosine deaminase (Homo sapiens) (UniProt Q9GZX7) (assay: Primary qHTS assay for inhibitors of Activation Induced Cytidine Deaminase (AID): AID signal). Settings: AID deamination FRET fluorescence, UDG-coupled, 4 h; series mostly up to 115 µM.
Sequence of UniProt Q9GZX7 (Q9GZX7 whole entry, looked up): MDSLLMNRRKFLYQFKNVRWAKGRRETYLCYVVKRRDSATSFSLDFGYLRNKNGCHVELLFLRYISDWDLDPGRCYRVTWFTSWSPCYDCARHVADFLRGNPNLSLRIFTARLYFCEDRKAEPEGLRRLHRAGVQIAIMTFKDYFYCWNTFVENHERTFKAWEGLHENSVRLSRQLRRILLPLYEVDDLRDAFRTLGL
Also: nearly all actives have a fitted effect of over 25% in size.
Potency is read from the fitted curve at half-maximal effect; tags tell the direction and shape of the fitted curve.

**Q.** How did the Potency turn out when `CCC1CN(C(=O)N2CCC(C(=O)N3CCN(c4ccccc4F)CC3)CC2)c2ccccc2O1` (stereo not given) was run?
**A.** inconclusive: 70.8 µM [inhibitor, single point]

**Q.** With `COc1ccc(CNC(=O)C2CCCN(c3nnc(C)c4c(C)n(-c5ccc(C)cc5)nc34)C2)cc1` (stereo not given) as the compound, how does the Potency read?
**A.** inconclusive: 25.1 µM [inhibitor, full curve, poor fit]

**Q.** Which Potency does the source give for `CCOc1c(Cl)cc(C(=O)N(Cc2ccc(N(C)C)cc2)Cc2ccco2)cc1Cl` here?
**A.** inconclusive: 56.2 µM [inhibitor, partial curve, poor fit]

**Q.** With `Cc1ccc2c(c1)c1c3n2CCN(C(=O)c2cccc(C(F)(F)F)c2)C3CCC1` (stereo not given) as the compound, how does the Potency read?
**A.** inconclusive: 100 µM [inhibitor, partial curve, poor fit]

**Q.** With `CCc1cccc(C)c1Nc1c(-c2ccsc2)nc2ncccn12` as the compound, how does the Potency read?
**A.** inconclusive: 63.1 µM [inhibitor, partial curve, poor fit]

**Q.** For `CNC(=O)c1ccc2c(c1)N(Cc1ccccc1Cl)C(=O)c1ccccc1S2`, which Potency is on record?
**A.** inconclusive: 56.2 µM [inhibitor, partial curve, poor fit]

**Q.** `COC(=O)c1ccc(Cn2c(SCc3ccc(F)cc3)nc3ccncc32)cc1` was tested. Which Potency did it give?
**A.** inconclusive: 50.1 µM [inhibitor, partial curve, poor fit]

**Q.** For `CN(C)/C=C/C(=O)c1ccc[nH]1`, which Potency is on record?
**A.** inactive

**Q.** How did the Potency turn out when `Nc1nccnc1C(=O)Nc1ccc2ccccc2n1` was run?
**A.** inactive

**Q.** Which Potency does the source give for `CCNC(=O)NC(=O)C(C)Sc1nnc(-c2ccccc2)n1CC` (stereo not given) here?
**A.** inactive

**Q.** `COCCCNS(=O)(=O)c1cccc2cc(C)cnc12` was tested. Which Potency did it give?
**A.** inactive

**Q.** For `O=C(NCCn1cc(SCc2ccc(F)cc2)c2ccccc21)c1cccs1`, which Potency is on record?
**A.** inconclusive: 89.1 µM [inhibitor, single point]

**Q.** How did the Potency turn out when `Cc1csc(C(C#N)C(=O)CSc2ccc3c(c2)OCCO3)n1` (stereo not given) was run?
**A.** inactive

**Q.** Which Potency does the source give for `CCC(C(=O)Nc1ccc(C)c(Cl)c1)n1c(=O)c(-c2ccccc2NC(C)=O)nc2ccccc21` (stereo not given) here?
**A.** inconclusive: 35.5 µM [inhibitor, partial curve, poor fit]

**Q.** `Cc1nc(-n2nc(C)c(CCC(C)C)c2C)sc1C(=O)Nc1cccc(Cl)c1` was tested. Which Potency did it give?
**A.** inconclusive: 2.82 µM [inhibitor, full curve, poor fit]

**Q.** For `Fc1ccccc1NC(=S)NCCc1ccc(C(F)(F)F)cc1`, which Potency is on record?
**A.** inactive

**Q.** Which Potency does the source give for `CCC(Sc1nnc(-c2ccc(OC)c(OC)c2)c(-c2ccc(OC)c(OC)c2)n1)C(=O)NC1CCCC1` (stereo not given) here?
**A.** inconclusive: 15.8 µM [inhibitor, full curve, poor fit]

**Q.** For `CCOc1ccc(N(CC)C(=O)CCc2nc(-c3ccccc3F)no2)cc1`, which Potency is on record?
**A.** inconclusive: 50.1 µM [inhibitor, partial curve, poor fit]

**Q.** How did the Potency turn out when `CC(C)(C)OC(=O)NC1CCN(C(=O)CCCc2cccs2)CC1` was run?
**A.** inactive

**Q.** With `Cc1cccc(OCc2nnc(SCc3ccc(Cl)c(Cl)c3)n2C)c1C` as the compound, how does the Potency read?
**A.** inconclusive: 50.1 µM [inhibitor, partial curve, poor fit]

**Q.** Which Potency does the source give for `Cc1ccc(Nc2sc(C(=O)c3ccccc3)c(N)c2C(N)=O)cc1` here?
**A.** inactive

**Q.** For `CCOC(=O)C1C(=O)C=C(/C=C/c2ccco2)CC1c1ccccc1` (stereo not given), which Potency is on record?
**A.** inactive

**Q.** How did the Potency turn out when `CCc1ccccc1NC(=O)Cn1c(SCc2ccc(F)cc2)nc2ccncc21` was run?
**A.** inconclusive: 89.1 µM [inhibitor, single point]

**Q.** Which Potency does the source give for `CC(C)Cn1nc(C(=O)OCC(N)=O)c2ccccc2c1=O` here?
**A.** inactive

**Q.** For `CC1CCCN(C(C)C(=O)Nc2ccc(C#N)cc2)C1` (stereo not given), which Potency is on record?
**A.** inactive

**Q.** How did the Potency turn out when `O=C1/C(=C/c2cccc(F)c2)CSc2ccc(F)cc21` was run?
**A.** inconclusive: 44.7 µM [inhibitor, partial curve, poor fit]

**Q.** How did the Potency turn out when `COc1cccc(CNC(=O)C2CCCN(c3nc4ccccc4n4cccc34)C2)c1` (stereo not given) was run?
**A.** inactive

**Q.** `CC(C)CNC(=O)COC(=O)c1cc(-c2ccco2)nc2ccccc12` was tested. Which Potency did it give?
**A.** inconclusive: 50.1 µM [inhibitor, partial curve, poor fit]

**Q.** How did the Potency turn out when `O=C(C1=C(c2ccccc2)SCCO1)N(Cc1ccccc1)C1CCS(=O)(=O)C1` (stereo not given) was run?
**A.** inactive

**Q.** `COc1ccc(-c2nn(-c3ccccc3)cc2C2NC(=O)NC(C)=C2C(=O)OC(C)C)cc1OC` (stereo not given) was tested. Which Potency did it give?
**A.** inconclusive: 3.55 µM [inhibitor, full curve, poor fit]

**Q.** `COc1ccccc1CNc1ncnc2c1cnn2-c1ccc(C)cc1` was tested. Which Potency did it give?
**A.** inconclusive: 17.8 µM [inhibitor, partial curve, poor fit]

**Q.** How did the Potency turn out when `Cc1ccc2nc(NC(=O)CSc3nccn3Cc3ccc(F)cc3)sc2c1` was run?
**A.** inconclusive: 100 µM [inhibitor, single point]

**Q.** `Cc1ccc(-c2cc(C(=O)Oc3ccc(C#N)cc3)no2)cc1C` was tested. Which Potency did it give?
**A.** inconclusive: 89.1 µM [inhibitor, single point]

**Q.** Which Potency does the source give for `Cc1cccc(-c2nc(CN3CCCC(C(=O)NCCc4ccc(Cl)cc4)C3)c(C)o2)c1` (stereo not given) here?
**A.** inconclusive: 31.6 µM [inhibitor, full curve]

**Q.** `CCOc1ccc(-n2c(C)c(C(C)=O)c3cc(OCC(N)=O)ccc32)cc1` was tested. Which Potency did it give?
**A.** inconclusive: 50.1 µM [inhibitor, partial curve, poor fit]

**Q.** For `Cc1cc(C)cc(NC(=O)C2CC(=O)N(c3ccccc3)C2)c1` (stereo not given), which Potency is on record?
**A.** inactive

**Q.** How did the Potency turn out when `C=CCOc1ccccc1NC(=O)Cc1ccccc1` was run?
**A.** inactive

**Q.** For `CCOC(=O)N1CCc2c(sc(NCc3cccs3)c2C(=O)Nc2ccc(OC)cc2OC)C1`, which Potency is on record?
**A.** inconclusive: 39.8 µM [inhibitor, full curve]

**Q.** With `Cc1ccc(C)c(Nc2nn3c(=O)c4cc5c(cc4nc3s2)OCO5)c1` as the compound, how does the Potency read?
**A.** inactive

**Q.** Which Potency does the source give for `CC(C)=CC1C(C(=O)NC2CCCCC2C(F)(F)F)C1(C)C` (stereo not given) here?
**A.** inactive

**Q.** Which Potency does the source give for `O=C(CC1N=C2c3ccccc3N=C(SCc3cccc(Cl)c3)N2C1=O)NCCc1ccccc1` (stereo not given) here?
**A.** inconclusive: 50.1 µM [inhibitor, partial curve, poor fit]

**Q.** With `Cc1ccc(NC(=O)C(Cc2ccccc2)N2Cc3ccccc3C2=O)cc1Cl` (stereo not given) as the compound, how does the Potency read?
**A.** inconclusive: 22.4 µM [inhibitor, full curve, poor fit]

**Q.** How did the Potency turn out when `COc1ccc(Br)cc1CN1CCCC(C(=O)N(C)Cc2ccccc2)C1` (stereo not given) was run?
**A.** inactive

**Q.** `COc1cc(C(=O)CCN(C)C)cc(OC)c1OC` was tested. Which Potency did it give?
**A.** inactive

**Q.** With `CC(C)c1ccc(NC(=O)c2ccc3c(O)c(S(=O)(=O)c4ccccc4)c(=O)[nH]c3c2)cc1` as the compound, how does the Potency read?
**A.** inconclusive: 50.1 µM [inhibitor, partial curve, poor fit]
